About 2,200 (0.71%) of roughly 310,000 compounds showed an effect of 50% or more. The effect is printed as a negative number. The list shows a part of the results.

Chain of human ether-à-go-go-related gene (hERG) potassium channel (Q12809 whole entry, looked up): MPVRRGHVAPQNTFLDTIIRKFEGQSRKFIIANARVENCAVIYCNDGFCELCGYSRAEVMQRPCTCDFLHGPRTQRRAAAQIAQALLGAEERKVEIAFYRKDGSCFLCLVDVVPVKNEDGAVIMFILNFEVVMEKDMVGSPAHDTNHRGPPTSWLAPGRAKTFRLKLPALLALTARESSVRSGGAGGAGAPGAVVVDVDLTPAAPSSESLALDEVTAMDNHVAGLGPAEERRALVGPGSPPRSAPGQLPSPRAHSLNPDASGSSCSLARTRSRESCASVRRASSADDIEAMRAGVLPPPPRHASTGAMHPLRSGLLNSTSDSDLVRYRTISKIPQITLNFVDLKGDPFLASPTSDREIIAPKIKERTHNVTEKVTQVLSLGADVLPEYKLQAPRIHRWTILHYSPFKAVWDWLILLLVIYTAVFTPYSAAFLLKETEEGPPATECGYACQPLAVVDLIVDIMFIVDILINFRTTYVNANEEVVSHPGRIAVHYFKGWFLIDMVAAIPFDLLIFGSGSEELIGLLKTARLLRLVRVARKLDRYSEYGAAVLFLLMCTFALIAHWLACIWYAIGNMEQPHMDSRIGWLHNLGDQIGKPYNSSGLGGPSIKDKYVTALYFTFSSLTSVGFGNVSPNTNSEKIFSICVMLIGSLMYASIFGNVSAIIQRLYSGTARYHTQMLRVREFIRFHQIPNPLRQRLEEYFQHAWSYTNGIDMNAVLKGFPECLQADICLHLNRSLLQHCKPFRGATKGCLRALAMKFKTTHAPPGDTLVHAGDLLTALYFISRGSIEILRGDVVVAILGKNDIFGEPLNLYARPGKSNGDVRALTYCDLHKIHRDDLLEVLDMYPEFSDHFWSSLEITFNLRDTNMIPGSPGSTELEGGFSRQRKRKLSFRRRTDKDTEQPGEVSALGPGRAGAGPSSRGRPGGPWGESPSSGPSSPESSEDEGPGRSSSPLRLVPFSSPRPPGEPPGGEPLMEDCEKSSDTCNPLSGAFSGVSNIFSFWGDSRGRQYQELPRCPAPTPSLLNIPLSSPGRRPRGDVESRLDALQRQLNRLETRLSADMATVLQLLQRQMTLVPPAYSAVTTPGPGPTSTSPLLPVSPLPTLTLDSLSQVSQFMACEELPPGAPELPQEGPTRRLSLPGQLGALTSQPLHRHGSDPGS

The test concerns the target human ether-à-go-go-related gene (hERG) potassium channel (human, UniProt Q12809). Description: primary screen, population patch clamp on CHO cells stably expressing hERG.
As to `Cc1cc(C(=O)CSc2nnc(C3COc4ccccc4O3)n2C)c(C)n1-c1ccc(F)cc1` (stereo not drawn), the “hERG current change (%, negative = inhibition) at 1uM” value amounted to 4.24%.

For `O=C(Cc1ccccc1F)Nc1cccc2cccnc12`, the “hERG current change (%, negative = inhibition) at 1uM” value is listed as 0.881%. As for `Cc1ccc(NC(=O)C2CCCN2C(=O)NC2CCCCC2)cc1F` (stereo not drawn), the “hERG current change (%, negative = inhibition) at 1uM” value worked out at 9.45%. As for `Cc1ccc2nc(CSc3nnc(Nc4ccccc4F)s3)cc(=O)n2c1`, the figure is -7.74%; as for `NC(=O)C1(N2CCCCC2)CCN(S(=O)(=O)c2ccc(Cl)s2)CC1`, 5.38%; as for `COc1cccc(C(C2=C(O)CC(C)(C)CC2=O)C2C(=O)CC(C)(C)CC2=O)c1` (stereo not drawn), 22.1%.

Turning to `CC(C)N(C(=O)Cn1c(-c2cccnc2)ccc(C#N)c1=O)C(C)C`, the “hERG current change (%, negative = inhibition) at 1uM” value is reported as 9.08%. Under `COc1ccc(NC(=S)NNC(=O)c2ccccc2OC(F)F)cc1` stands -1.63%; under `O=C1C2C3C=CC(C3)C2C(=O)N1/N=C/c1cc(Br)cc([N+](=O)[O-])c1O` (stereo not drawn), 8.33%. As for `CC1(C)CC(=O)c2sc(N3CCCCC3)nc2C1`, the figure is 13%; as for `Cc1ccc(S(=O)(=O)N2CCN(C(=O)c3ccc(Cl)nc3)CC2)cc1`, 6.65%; as for `Cc1ccc(SC2=C(C(=O)O)CCCC2)cc1`, 7.3%. As for `CCSc1nnc(NC(=O)c2nn(C(C)C)c(=O)c3ccccc23)s1`, the figure is -3.68%; as for `COc1ccc(N(CC(=O)Nc2cc(OC)ccc2OC)S(=O)(=O)c2c(C)noc2C)cc1`, 5.69%; as for `Cc1ccc(-c2csc3nc(C)n(-n4cccc4)c(=O)c23)o1`, 4.98%. On to `CCCC(=O)N1CCN(c2nnc(-c3ccccc3)c3ccccc23)CC1`, for which the “hERG current change (%, negative = inhibition) at 1uM” value came to 1.58%.

Consider `C=CCn1c(CCCNC(=O)CCC)nc2ccccc21`, for which the “hERG current change (%, negative = inhibition) at 1uM” value is recorded as 6.24%. Under `COC(=O)c1ccc(COc2ccc(/C=N/O)cc2)o1` stands 9.76%; under `COc1cccc(-c2nc(CS(=O)CC(=O)NCCc3ccc(C)cc3)c(C)o2)c1` (stereo not drawn), 10.8%; under `CCCCCN(C(=O)CCC(=O)OCC(=O)N(CC#N)c1ccccc1)c1c(N)n(CCCC)c(=O)[nH]c1=O`, 3.81%. As for `Cc1ccc(OCCc2csc(N)n2)cc1`, the figure is 10.9%; as for `COc1ccccc1-c1cc(C(=O)NC(C)C)no1`, -7.94%; as for `Cn1c(=O)cc(Cl)[nH]c1=O`, 10.9%. Under `CCn1c(SCC(=O)Nc2nc3c(s2)CCCC3)nnc1-c1ccccc1` stands -1.1%. Regarding `Cc1cccc(NC(=O)c2ccc(CN3CCN(Cc4ccccc4)CC3)cc2)c1`, the “hERG current change (%, negative = inhibition) at 1uM” value was -40.4%. Consider `O=C(CCc1ccccc1)Nc1ccc2c(c1)OCO2`, for which the “hERG current change (%, negative = inhibition) at 1uM” value was found to be 16.4%. Under `Cc1ccc(CN(C)C(=O)COC(=O)CSc2cc(C)c3ccccc3n2)cc1` stands 7.8%; under `CC1(C)Cc2ccccc2-c2nnc(SCC(=O)N3CCc4ccccc43)n21`, 10.9%; under `C=CCn1c(-c2oc3nc(-c4ccccc4)cc(-c4ccccc4)c3c2N)n[nH]c1=S`, -3.13%. Under `COc1ccc(NC(=O)Cc2nnc(SCC(=O)NC3=NCCS3)n2C)cc1` stands 2.98%; under `CCn1c(SCC(=O)NCc2ccco2)nnc1-c1c[nH]c2ccccc12`, 13.1%; under `C[N+]1(C)[C@@H]2CC[C@H]1CC(OC(=O)C(CO)c1ccccc1)C2.O=[N+]([O-])[O-]` (stereo partly drawn), 12.7%. Turning to `CC12CCC(C/C1=N\N=C1\NC(=O)/C(=C\c3cccc(Br)c3)S1)C2(C)C` (stereo not drawn), the “hERG current change (%, negative = inhibition) at 1uM” value was 6.04%. On to `Cc1cc(C)n(S(=O)(=O)/C=C/c2ccccc2)n1`, for which the “hERG current change (%, negative = inhibition) at 1uM” value is recorded as 7.16%.

Regarding `Cc1c(OCC(=O)N2CCC[C@@H]2C(=O)O)ccc2c3c(c(=O)oc12)CCC3`, the “hERG current change (%, negative = inhibition) at 1uM” value was determined as 11.3%. As for `COc1ccc(CN2CCN(C3CCSCC3)CC2CCO)c(C)c1C` (stereo not drawn), the figure is -9%.

In the case of `Cc1ccc(-c2nnnn2-c2ccccc2C(=O)O)cc1`, the “hERG current change (%, negative = inhibition) at 1uM” value came out at 15.7%. Under `CCCc1c(C(=O)Nc2ccc(N3CCOCC3)cc2)cnn1-c1ccccc1` stands 7.07%. As for `Cc1ccc(CSc2nc3ccccc3c(=O)[nH]2)cc1`, the figure is 3.74%; as for `COc1ccc(N2CCN(C(=O)C(Cc3ccccc3)n3cccc3)CC2)cc1` (stereo not drawn), 8.78%; as for `O=C(CCC(=O)OCc1cccc([N+](=O)[O-])c1)Nc1ccccc1Cl`, 2.86%. As for `CCOc1ccccc1NC(=O)CSc1ccc(-c2sc(C)nc2C)nn1`, the figure is 11.7%; as for `Cc1cc(C(=O)N/N=C/C=C/c2ccccc2)c(C)o1`, 12%. Regarding `CC(=O)N1CCN(Cc2nc3ccc(Cl)cc3n2CCO)CC1`, the “hERG current change (%, negative = inhibition) at 1uM” value was 15.9%.

As to `O=C(Nc1ccc(Cl)c(C(F)(F)F)c1)N1CCCC(O)C1` (stereo not drawn), the “hERG current change (%, negative = inhibition) at 1uM” value is listed as 12.5%.

For the origin of these results see article PMC4336329 (PLoS ONE, 2015).
